This is one part of the list.
Legend:
Assay in all cases: glycan array binding signal (z-score within array); higher = stronger binding
Conditions in all cases: glycan notation: IUPAC condensed, linker removed
[1] = target: Neu5Ac(a2-3)Gal(b1-3)[Neu5Ac(a2-6)]GalNAc
Procedure, shortened: (§1)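 Glycan array binding is given as a within-array Z-score, which can be read as non-binding when negative. The arrays, 3228 of them, came from the Consortium for Functional Glycomics database and were retained only where the protein sequence was available. Z-scores were averaged across arrays of the same protein sequence at different concentrations or buffers and across linkers.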

[2] = target: Neu5Ac(a2-3)Gal(b1-4)Glc
Procedure, shortened: as §1

[3] = target: Neu5Ac(a2-3)Gal(b1-4)GlcNAc
Procedure, shortened: as §1

[4] = target: Neu5Ac(a2-3)Gal(b1-4)GlcNAc(b1-2)Man(a1-3)[Neu5Ac(a2-3)Gal(b1-4)GlcNAc(b1-2)Man(a1-6)]Man(b1-4)GlcNAc(b1-4)GlcNAc
Procedure, shortened: as §1

[5] = target: Neu5Ac(a2-3)Gal(b1-4)GlcNAc(b1-3)Gal(b1-4)GlcNAc
Procedure, shortened: as §1

[6] = target: Neu5Ac(a2-3)Gal(b1-4)GlcNAc(b1-3)Gal(b1-4)GlcNAc(b1-3)Gal(b1-4)GlcNAc
Procedure, shortened: as §1

[7] = target: Neu5Ac(a2-3)Gal(b1-4)GlcNAc(b1-3)Gal(b1-4)[Fuc(a1-3)]GlcNAc
Procedure, shortened: as §1

[8] = target: Neu5Ac(a2-3)Gal(b1-4)GlcNAc6S
Procedure, shortened: as §1

[9] = target: Neu5Ac(a2-3)Gal(b1-4)[Fuc(a1-3)]GlcNAc
Procedure, shortened: as §1

[10] = target: Neu5Ac(a2-3)Gal(b1-4)[Fuc(a1-3)]GlcNAc(b1-3)Gal
Procedure, shortened: as §1

[11] = target: Neu5Ac(a2-3)Gal(b1-4)[Fuc(a1-3)]GlcNAc(b1-3)Gal(b1-4)GlcNAc
Procedure, shortened: as §1

[12] = target: Neu5Ac(a2-3)Gal(b1-4)[Fuc(a1-3)]GlcNAc(b1-3)Gal(b1-4)[Fuc(a1-3)]GlcNAc(b1-3)Gal(b1-4)[Fuc(a1-3)]GlcNAc
Procedure, shortened: as §1

[13] = target: Neu5Ac(a2-3)Gal(b1-4)[Fuc(a1-3)]GlcNAc6S
Procedure, shortened: as §1

[14] = target: Neu5Ac(a2-3)Gal6S(b1-4)GlcNAc
Procedure, shortened: as §1

[15] = target: Neu5Ac(a2-3)Gal6S(b1-4)[Fuc(a1-3)]GlcNAc
Procedure, shortened: as §1

[16] = target: Neu5Ac(a2-3)GalNAc
Procedure, shortened: as §1

[17] = target: Neu5Ac(a2-3)GalNAc(b1-4)GlcNAc
Procedure, shortened: as §1

[18] = target: Neu5Ac(a2-3)[GalNAc(b1-4)]Gal(b1-4)Glc
Procedure, shortened: as §1

[19] = target: Neu5Ac(a2-3)[GalNAc(b1-4)]Gal(b1-4)GlcNAc
Procedure, shortened: as §1

[20] = target: Neu5Ac(a2-3)[Neu5Ac(a2-6)]GalNAc
Procedure, shortened: as §1

[21] = target: Neu5Ac(a2-6)Gal
Procedure, shortened: as §1

[22] = target: Neu5Ac(a2-6)Gal(b1-4)Glc
Procedure, shortened: as §1

[23] = target: Neu5Ac(a2-6)Gal(b1-4)GlcNAc
Procedure, shortened: as §1

[24] = target: Neu5Ac(a2-6)Gal(b1-4)GlcNAc(b1-3)Gal(b1-4)GlcNAc
Procedure, shortened: as §1

[25] = target: Neu5Ac(a2-6)Gal(b1-4)GlcNAc(b1-3)Gal(b1-4)[Fuc(a1-3)]GlcNAc(b1-3)Gal(b1-4)[Fuc(a1-3)]GlcNAc
Procedure, shortened: as §1

[26] = target: Neu5Ac(a2-6)Gal(b1-4)GlcNAc6S
Procedure, shortened: as §1

[27] = target: Neu5Ac(a2-6)GalNAc
Procedure, shortened: as §1

[28] = target: Neu5Ac(a2-6)GalNAc(b1-4)GlcNAc
Procedure, shortened: as §1

[29] = target: Neu5Ac(a2-8)Neu5Ac
Procedure, shortened: as §1

[30] = target: Neu5Ac(a2-8)Neu5Ac(a2-3)Gal(b1-4)Glc
Procedure, shortened: as §1

[31] = target: Neu5Ac(a2-8)Neu5Ac(a2-3)[GalNAc(b1-4)]Gal(b1-4)Glc
Procedure, shortened: as §1

[32] = target: Neu5Ac(a2-8)Neu5Ac(a2-8)Neu5Ac
Procedure, shortened: as §1

[33] = target: Neu5Ac(a2-8)Neu5Ac(a2-8)Neu5Ac(a2-3)Gal(b1-4)Glc
Procedure, shortened: as §1

[34] = target: Neu5Ac(a2-8)Neu5Ac(a2-8)Neu5Ac(a2-3)[GalNAc(b1-4)]Gal(b1-4)Glc
Procedure, shortened: as §1

[35] = target: Neu5Ac(a2-8)Neu5Ac(a2-8)Neu5Ac(a2-8)Neu5Ac(a2-3)[GalNAc(b1-4)]Gal(b1-4)Glc
Procedure, shortened: as §1

[36] = target: Neu5Ac(b1-6)GalNAc
Procedure, shortened: as §1

[37] = target: Neu5Ac(b2-6)Gal(b1-4)GlcNAc
Procedure, shortened: as §1

[38] = target: Neu5Ac9Ac(a2-6)Gal(b1-4)GlcNAc
Procedure, shortened: as §1

[39] = target: Neu5Gc(a2-3)Gal(b1-3)GlcNAc
Procedure, shortened: as §1

[40] = target: Neu5Gc(a2-3)Gal(b1-3)[Fuc(a1-4)]GlcNAc
Procedure, shortened: as §1

[41] = target: Neu5Gc(a2-3)Gal(b1-4)Glc
Procedure, shortened: as §1

[42] = target: Neu5Gc(a2-3)Gal(b1-4)GlcNAc
Procedure, shortened: as §1

[43] = target: Neu5Gc(a2-3)Gal(b1-4)[Fuc(a1-3)]GlcNAc
Procedure, shortened: as §1

[44] = target: Neu5Gc(a2-6)Gal(b1-4)GlcNAc
Procedure, shortened: as §1

[45] = target: Neu5Gc(a2-6)GalNAc
Procedure, shortened: as §1

B1: TREM-2 (Mus musculus), Q99NH8 (protein)
chain: MGPLHQFLLLLITALSQALNTTVLQGMAGQSLRVSCTYDALKHWGRRKAWCRQLGEEGPCQRVVSTHGVWLLAFLKKRNGSTVIADDTLAGTVTITLKNLQAGDAGLYQCQSLRGREAEVLQKVLVEVLEDPLDDQDAGDLWVPEESSSFEGAQVEHSTSRNQETSFPPTSILLLLACVLLSKFLAASILWAVARGRQKPGTPVVRGLDCGQDAGHQLQILTGPGGT
B1 was tested, and the “glycan array binding signal (z-score)” value [1] was -0.233, the “glycan array binding signal (z-score)” value [2] was 0.131 and the “glycan array binding signal (z-score)” value [3] was -0.391. The “glycan array binding signal (z-score)” value [4] was -0.327, the “glycan array binding signal (z-score)” value [5] was -0.376 and the “glycan array binding signal (z-score)” value [6] was -0.297. The “glycan array binding signal (z-score)” value [7] was -0.312, the “glycan array binding signal (z-score)” value [8] was 1.52 and the “glycan array binding signal (z-score)” value [9] was -0.217. The “glycan array binding signal (z-score)” value [10] was -0.393, the “glycan array binding signal (z-score)” value [11] was -0.043 and the “glycan array binding signal (z-score)” value [12] was -0.235. For the same binder, the “glycan array binding signal (z-score)” value [13] was 0.259, the “glycan array binding signal (z-score)” value [14] was 0.56 and the “glycan array binding signal (z-score)” value [15] was 0.844. The “glycan array binding signal (z-score)” value [16] was -0.038, the “glycan array binding signal (z-score)” value [17] was -0.226 and the “glycan array binding signal (z-score)” value [18] was -0.373. For the same binder, the “glycan array binding signal (z-score)” value [19] was -0.273, the “glycan array binding signal (z-score)” value [20] was 0.289 and the “glycan array binding signal (z-score)” value [21] was -0.353. For the same binder, the “glycan array binding signal (z-score)” value [22] was -0.292, the “glycan array binding signal (z-score)” value [23] was -0.332 and the “glycan array binding signal (z-score)” value [24] was -0.403. The “glycan array binding signal (z-score)” value [25] was -0.319, the “glycan array binding signal (z-score)” value [26] was 1.03 and the “glycan array binding signal (z-score)” value [27] was -0.359. For the same binder, the “glycan array binding signal (z-score)” value [28] was -0.226, the “glycan array binding signal (z-score)” value [29] was -0.304 and the “glycan array binding signal (z-score)” value [30] was -0.183. The “glycan array binding signal (z-score)” value [31] was -0.193, the “glycan array binding signal (z-score)” value [32] was -0.266 and the “glycan array binding signal (z-score)” value [33] was -0.398. The “glycan array binding signal (z-score)” value [34] was -0.283, the “glycan array binding signal (z-score)” value [35] was -0.306 and the “glycan array binding signal (z-score)” value [36] was -0.164. For the same binder, the “glycan array binding signal (z-score)” value [37] was -0.237, the “glycan array binding signal (z-score)” value [38] was -0.265 and the “glycan array binding signal (z-score)” value [39] was -0.366. The “glycan array binding signal (z-score)” value [40] was -0.279, the “glycan array binding signal (z-score)” value [41] was -0.315 and the “glycan array binding signal (z-score)” value [42] was -0.296. The “glycan array binding signal (z-score)” value [43] was -0.273, the “glycan array binding signal (z-score)” value [44] was -0.342 and the “glycan array binding signal (z-score)” value [45] was -0.368.

— the supplement of paper PMC8728848
